Measurements from publication PMC10645070.
No constants are given. Whether binding was seen depends on the method and setting. Binding seen in cells or lysates may run through a third protein. Some binding calls cover weakened binding; strength is not graded here. Each block holds one molecule with its values, some of them ahead of it.

Sequences of proteins named here, by UniProt entry; tags and fusion partners are left off. A change or cut given only in a name is not applied to a line headed by its entry. Residues count along the entry.
UniProt P08050: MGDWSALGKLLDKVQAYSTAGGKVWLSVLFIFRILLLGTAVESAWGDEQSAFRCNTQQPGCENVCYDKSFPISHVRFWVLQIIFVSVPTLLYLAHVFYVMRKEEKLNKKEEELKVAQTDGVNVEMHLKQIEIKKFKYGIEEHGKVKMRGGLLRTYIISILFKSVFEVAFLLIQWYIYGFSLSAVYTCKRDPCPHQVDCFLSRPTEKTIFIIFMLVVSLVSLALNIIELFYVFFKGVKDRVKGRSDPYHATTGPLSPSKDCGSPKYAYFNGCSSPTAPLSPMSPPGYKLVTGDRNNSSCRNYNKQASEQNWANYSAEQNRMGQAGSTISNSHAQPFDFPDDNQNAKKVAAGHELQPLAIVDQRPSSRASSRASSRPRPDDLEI
Cx43 lacking the entire C-terminal region (K258stop, Cx43^ΔCT): residues 1-257 of P08050
UniProt Q14974: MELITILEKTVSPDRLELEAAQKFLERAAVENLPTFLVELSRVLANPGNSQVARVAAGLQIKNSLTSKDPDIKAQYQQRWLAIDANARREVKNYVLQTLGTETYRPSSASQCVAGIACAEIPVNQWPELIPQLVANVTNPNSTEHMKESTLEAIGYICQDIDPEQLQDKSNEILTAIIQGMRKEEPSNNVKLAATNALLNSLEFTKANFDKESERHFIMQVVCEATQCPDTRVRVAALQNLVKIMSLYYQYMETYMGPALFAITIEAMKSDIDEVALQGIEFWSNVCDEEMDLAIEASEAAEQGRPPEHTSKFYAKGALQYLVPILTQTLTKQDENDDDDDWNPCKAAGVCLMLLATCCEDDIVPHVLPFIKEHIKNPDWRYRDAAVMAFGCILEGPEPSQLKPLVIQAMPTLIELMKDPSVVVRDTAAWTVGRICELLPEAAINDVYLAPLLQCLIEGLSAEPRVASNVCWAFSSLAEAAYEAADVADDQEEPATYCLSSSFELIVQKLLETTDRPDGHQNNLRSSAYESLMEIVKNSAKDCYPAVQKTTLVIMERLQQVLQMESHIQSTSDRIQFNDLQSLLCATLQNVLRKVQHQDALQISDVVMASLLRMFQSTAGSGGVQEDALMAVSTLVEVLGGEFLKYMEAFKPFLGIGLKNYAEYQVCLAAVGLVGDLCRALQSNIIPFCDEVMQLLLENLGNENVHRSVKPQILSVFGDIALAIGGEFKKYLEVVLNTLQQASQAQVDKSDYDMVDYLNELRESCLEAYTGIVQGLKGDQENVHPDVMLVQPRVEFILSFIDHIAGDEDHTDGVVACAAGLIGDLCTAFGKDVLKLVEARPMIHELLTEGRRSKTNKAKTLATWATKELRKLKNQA
UniProt P67809: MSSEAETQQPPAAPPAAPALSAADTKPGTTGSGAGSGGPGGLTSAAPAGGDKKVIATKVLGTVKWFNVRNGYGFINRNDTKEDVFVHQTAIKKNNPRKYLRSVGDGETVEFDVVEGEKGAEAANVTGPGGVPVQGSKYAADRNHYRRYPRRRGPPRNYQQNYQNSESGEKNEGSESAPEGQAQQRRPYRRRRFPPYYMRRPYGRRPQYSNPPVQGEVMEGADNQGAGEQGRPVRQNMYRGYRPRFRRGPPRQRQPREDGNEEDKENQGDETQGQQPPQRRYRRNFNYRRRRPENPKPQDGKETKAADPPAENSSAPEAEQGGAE

Columns and labels:
[1] = molecular target: Connexin43 (Cx43) of rat origin, stably expressed in HEK293 cells (HEK293^Cx43+) (rat) (UniProt P08050); test: co-IP; Cx43 immunoprecipitated (goat anti-Cx43 AB0016, RIPA buffer with 0.5% TX100) from whole-cell extracts; WB
[2] = molecular target: Cx43 lacking the entire C-terminal region (K258stop, Cx43^ΔCT) (rat) (UniProt P08050); test: co-IP; cells expressing Cx43^ΔCT (K258stop); interaction with Importin-β (figure S4f); antibody and extract not told
[3] = molecular target: V5-tagged full-length Cx43 (Cx43^WT), transiently expressed in HEK293^Cx43− cells (rat) (UniProt P08050); test: co-IP; V5 immunoprecipitated from whole-cell extracts of HEK293^Cx43− cells transfected with V5-tagged Cx43^WT or Cx43^ΔNLS for 24 h; WB for Importin-β
[4] = molecular target: Connexin43 (Cx43) of rat origin, stably expressed in HEK293 cells (HEK293^Cx43+) (rat) (UniProt P08050); test: co-IP; Cx43 immunoprecipitated (goat anti-Cx43 AB0016, protein G Sepharose, RIPA buffer with 0.5% TX100, overnight at 4°C) from purified nuclear extracts of HEK293^Cx43+ cells; WB
[5] = molecular target: Connexin43 (Cx43) of rat origin, stably expressed in HEK293 cells (HEK293^Cx43+) (rat) (UniProt P08050); test: co-IP; interaction of Cx43 with Importin-β after treatment of cells with 1 mM dbcAMP (promoted), 2 µM WAY-262611 (increased), 30 µM BI5521 (no change) or 5 µM Brefeldin A (decreased); extract not told (figures S5a, S6d)

binding [1]: binds
binding [2]: no binding
binding [3]: binds
binding [4]: binds
binding [5]: binds
Molecule: Importin-β/karyopherin-β1 (from UniProt Q14974 1-876)

binding [4]: binds
Molecule: Y-box-binding protein 1 (YBX1), endogenous (from UniProt P67809 1-324)

binding [4]: binds
Molecule: myc-YBX1 (from UniProt P67809 1-324)

binding [4]: binds
B1: SNW domain-containing protein 1 (SNW1) (protein, UniProt Q13573 1-536)
chain: MALTSFLPAPTQLSQDQLEAEEKARSQRSRQTSLVSSRREPPPYGYRKGWIPRLLEDFGDGGAFPEIHVAQYPLDMGRKKKMSNALAIQVDSEGKIKYDAIARQGQSKDKVIYSKYTDLVPKEVMNADDPDLQRPDEEAIKEITEKTRVALEKSVSQKVAAAMPVRAADKLAPAQYIRYTPSQQGVAFNSGAKQRVIRMVEMQKDPMEPPRFKINKKIPRGPPSPPAPVMHSPSRKMTVKEQQEWKIPPCISNWKNAKGYTIPLDKRLAADGRGLQTVHINENFAKLAEALYIADRKAREAVEMRAQVERKMAQKEKEKHEEKLREMAQKARERRAGIKTHVEKEDGEARERDEIRHDRRKERQHDRNLSRAAPDKRSKLQRNENRDISEVIALGVPNPRTSNEVQYDQRLFNQSKGMDSGFAGGEDEIYNVYDQAWRGGKDMAQSIYRPSKNLDKDMYGDDLEARIKTNRFVPDKEFSGSDRRQRGREGPVQFEEDPFGLDKFLEEAKQHGGSKRPSDSSRPKEHEHEGKKRRKE
